# Results from PMC4336329 (PLoS ONE, 2015).
# The campaign covered roughly 310,000 compounds. About 2,200 (0.71%) showed an effect of 50% or more. Effects have a minus sign here. This is one part of the list.
# Biological target: human ether-à-go-go-related gene (hERG) potassium channel (human, UniProt Q12809)
# Assay: primary screen, population patch clamp on CHO cells stably expressing hERG
# human ether-à-go-go-related gene (hERG) potassium channel, sequence (Q12809 whole entry, looked up): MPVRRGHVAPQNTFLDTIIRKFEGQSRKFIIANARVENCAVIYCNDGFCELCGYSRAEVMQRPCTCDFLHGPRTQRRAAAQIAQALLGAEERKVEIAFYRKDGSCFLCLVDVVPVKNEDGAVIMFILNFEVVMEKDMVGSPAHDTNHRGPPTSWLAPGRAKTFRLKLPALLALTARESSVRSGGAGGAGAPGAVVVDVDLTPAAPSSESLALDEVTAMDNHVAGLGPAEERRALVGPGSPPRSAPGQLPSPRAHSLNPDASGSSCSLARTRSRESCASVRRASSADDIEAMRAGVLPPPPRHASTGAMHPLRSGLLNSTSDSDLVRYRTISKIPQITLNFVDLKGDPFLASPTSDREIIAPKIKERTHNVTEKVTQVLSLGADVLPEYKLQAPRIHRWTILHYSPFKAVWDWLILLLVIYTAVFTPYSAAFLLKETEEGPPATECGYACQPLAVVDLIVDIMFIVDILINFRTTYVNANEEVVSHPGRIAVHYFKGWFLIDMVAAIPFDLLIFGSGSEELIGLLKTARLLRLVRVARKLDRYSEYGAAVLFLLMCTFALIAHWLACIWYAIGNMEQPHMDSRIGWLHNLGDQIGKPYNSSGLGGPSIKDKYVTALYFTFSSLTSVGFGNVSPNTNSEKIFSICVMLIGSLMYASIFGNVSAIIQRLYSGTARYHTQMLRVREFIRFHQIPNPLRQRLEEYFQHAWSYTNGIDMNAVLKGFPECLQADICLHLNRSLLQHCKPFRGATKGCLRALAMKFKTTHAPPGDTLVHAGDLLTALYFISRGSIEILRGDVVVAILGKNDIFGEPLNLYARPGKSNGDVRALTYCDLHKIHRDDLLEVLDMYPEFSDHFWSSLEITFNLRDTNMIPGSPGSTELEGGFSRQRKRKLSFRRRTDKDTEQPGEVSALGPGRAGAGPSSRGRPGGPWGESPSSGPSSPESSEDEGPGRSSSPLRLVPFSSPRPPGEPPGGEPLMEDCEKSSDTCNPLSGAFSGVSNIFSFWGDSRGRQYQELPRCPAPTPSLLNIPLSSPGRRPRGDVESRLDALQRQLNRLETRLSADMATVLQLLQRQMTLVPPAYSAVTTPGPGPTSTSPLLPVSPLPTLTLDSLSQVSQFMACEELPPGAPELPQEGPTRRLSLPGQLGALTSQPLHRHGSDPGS
row,SMILES,"hERG current change (%, negative = inhibition) at 1uM [%]"
1,CCCc1ccc(-c2cc(NC(=O)CSc3n[nH]c(N)n3)n(-c3ccccc3)n2)cc1,7.98
2,O=S(=O)(Nc1cccc(-c2nc3cccnc3s2)c1)c1ccc2c(c1)OCCO2,12.6
3,Cc1ncc([N+](=O)[O-])n1CC(=O)Nc1ccc(Cl)cc1,11.9
4,COc1cc(CNc2ccc(S(N)(=O)=O)cc2)ccc1OCC(=O)NC1CCCCC1,17.3
5,Cc1ccc(S(=O)(=O)c2nc(C)oc2NCc2ccccc2)cc1,17.4
6,C=CCNC(=O)COc1ccc(S(=O)(=O)NC2CCCCC2)cc1,14
7,O=C(COC(=O)Cc1c(F)cccc1Cl)NCCC1=CCCCC1,7.46
8,O=C(CCCCCNC(=O)N1CCn2c1nc1ccccc12)NCc1ccccc1,6.25
9,Cc1cccc(N2C(=O)c3cccnc3C2=O)c1,12.8
10,O=C(Cn1nc(-c2ccc(Cl)cc2)ccc1=O)NCC1COCCO1 (centres unmarked),3.16
11,COc1ccc(O)c(C=Nc2cc(C)on2)c1,-0.0913
12,O=S(=O)(c1cccs1)N1CCc2ccccc2C1,1.45
13,CCc1ccc(OCC(=O)Nc2cccc3nsnc23)cc1,5.64
14,COC(=O)Nc1ccc(OC)c(OC)c1,6.82
15,CCCCNC(=O)CSc1nc(COc2ccccc2)nc2ccccc12,17.6
16,CC1=Nc2cc(C(=O)NCC3CCCO3)ccc2Sc2ccc(Br)cc21 (centres unmarked),9.48
17,COC(Cc1nnc(SC)n1-c1ccc(Cl)cc1)OC,7.31
18,CCCCc1ccc(NC(=O)N[C@H](C(=O)O)C(C)CC)cc1 (some centres unmarked),-0.822
19,O=C(/C=C\c1ccc2c(c1)OCO2)Nc1nnc(SCC(=O)OCc2ccccc2)s1,7.47
20,O=C(CCC(=O)NNC(=O)COc1ccc(Br)cc1)NCc1ccccc1,20.4
21,CC(CCc1ccc(O)cc1)NC1c2ccccc2-c2ccccc21 (centres unmarked),9.7
22,CC(C)(C)c1nc2c(C#N)c(-c3ccc(Cl)cc3)ccn2n1,1.66
23,O=S(=O)(c1cccs1)N1CCC2(CC1)OCCO2,12.1
24,COC(=O)c1ccccc1S(=O)(=O)N1Cc2cc([N+](=O)[O-])ccc2Oc2ccccc21,15.8
25,O=c1[nH]c2cc(Cl)ccc2n1-c1ccccc1,8.22
26,O=C(Cn1c(=O)[nH]c2ccsc2c1=O)NC1CCCCC1,6.32
